Patent publication US20240150476A1 (Chugai, published 2024)

T1: soluble human IL-6R (human, UniProt P08887 20-357)
T1 construct: Expressed in CHO cells and purified from the supernatant; also called hsIL-6R; recombinant human IL6R
T1 sequence: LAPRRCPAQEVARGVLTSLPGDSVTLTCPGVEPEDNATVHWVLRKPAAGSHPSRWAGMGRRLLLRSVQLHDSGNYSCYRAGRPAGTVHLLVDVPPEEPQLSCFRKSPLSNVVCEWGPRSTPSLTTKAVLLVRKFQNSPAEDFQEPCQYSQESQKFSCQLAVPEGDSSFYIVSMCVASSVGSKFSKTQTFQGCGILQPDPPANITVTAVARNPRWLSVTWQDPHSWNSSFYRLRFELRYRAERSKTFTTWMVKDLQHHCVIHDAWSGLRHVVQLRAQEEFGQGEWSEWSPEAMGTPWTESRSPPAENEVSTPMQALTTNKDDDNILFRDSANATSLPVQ


Biological target: T1, soluble human IL-6R
Assay: BLI (Octet), in the same way as in Example 3

Binder | binding result
20A11-G1m/VL1-40-lamL (other, IgG antibody-like molecule) heavy: EVQLVESGGGLVQPGGSLRLSCAASGSVFKINVMAWYRQAPGKGRELVAGIISGGSTSYADSVKGRFTISRDNAKNTLYLQMNSLRPEDTAVYYCAFITTESDYDLGRRYWGQGTLVTVSS[skipping human IgG1 constant region] light: QSVLTQPPSVSGAPGQRVTISCTGSSSNIGAGYDVHWYQQLPGTAPKLLIYGNSNRPSGVPDRFSGSKSGTSASLAITGLQAEDEADYYCQSYDNSLNAVVFGGGTKLTVLGQPKAAPSVTLFPPSSEELQANKATLVCLISDFYPGAVTVAWKADSSPVKAGVETTTPSKQSNNKYAASSYLSLTPEQWKSHRSYSCQVTHEGSTVEKTVAPTECS | binds
20A11-G1m/VL2-14-lamL (other, IgG antibody-like molecule) heavy: EVQLVESGGGLVQPGGSLRLSCAASGSVFKINVMAWYRQAPGKGRELVAGIISGGSTSYADSVKGRFTISRDNAKNTLYLQMNSLRPEDTAVYYCAFITTESDYDLGRRYWGQGTLVTVSS[skipping human IgG1 constant region] light: QSALTQPASVSGSPGQSITISCTGTSSDVGGYNYVSWYQQHPGKAPKLMIYEVSNRPSGVSNRFSGSKSGNTASLTISGLQAEDEADYYCSSYRSGYTLVVFGGGTKLTVLGQPKAAPSVTLFPPSSEELQANKATLVCLISDFYPGAVTVAWKADSSPVKAGVETTTPSKQSNNKYAASSYLSLTPEQWKSHRSYSCQVTHEGSTVEKTVAPTECS | binds
20A11-G1m/VL3-21-lamL (other, IgG antibody-like molecule) heavy: EVQLVESGGGLVQPGGSLRLSCAASGSVFKINVMAWYRQAPGKGRELVAGIISGGSTSYADSVKGRFTISRDNAKNTLYLQMNSLRPEDTAVYYCAFITTESDYDLGRRYWGQGTLVTVSS[skipping human IgG1 constant region] light: SYVLTQPPSVSVAPGKTARITCGGNNIGSKSVHWYQQKPGQAPVLVIYYDSDRPSGIPERFSGSNSGNTATLTISRVEAGDEADYYCQAWDSSTDVVFGGGTKLTVLGQPKAAPSVTLFPPSSEELQANKATLVCLISDFYPGAVTVAWKADSSPVKAGVETTTPSKQSNNKYAASSYLSLTPEQWKSHRSYSCQVTHEGSTVEKTVAPTECS | binds
